This is one part of the list. Single values are uncertain, as repeats are few or missing.
What was measured:
Experiment in all cases: cell count relative to DMSO control; melanoma cells; higher = more viable cells
Settings in all cases: library dose: standard library concentration; 72 h
G361 = system: G361
IPC-298 = system: IPC-298
IST-MEL1 = system: IST-MEL1
LB2518-MEL = system: LB2518-MEL
LOXIMVI = system: LOXIMVI
MEL-HO = system: MEL-HO
MZ2-MEL = system: MZ2-MEL
MeWo = system: MeWo
RPMI7951 = system: RPMI7951
RVH-421 = system: RVH-421
SkMel28 = system: SkMel28
SkMel2 = system: SkMel2
SkMel30 = system: SkMel30
SkMel5 = system: SkMel5
UACC257 = system: UACC257
UACC62 = system: UACC62
WM115 = system: WM115
WM1716 = system: WM1716
WM1745 = system: WM1745
WM3526 = system: WM3526
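Further: cells treated in 1,536-well plates, then fixed and DAPI-stained, with nuclei counted from automated high-throughput microscope images.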

| Structure (SMILES) | cell count (G361) | cell count (IPC-298) | cell count (IST-MEL1) | cell count (LB2518-MEL) | cell count (LOXIMVI) | cell count (MEL-HO) | cell count (MZ2-MEL) | cell count (MeWo) | cell count (RPMI7951) | cell count (RVH-421) | cell count (SkMel28) | cell count (SkMel2) | cell count (SkMel30) | cell count (SkMel5) | cell count (UACC257) | cell count (UACC62) | cell count (WM115) | cell count (WM1716) | cell count (WM1745) | cell count (WM3526) |
| --- | --- | --- | --- | --- | --- | --- | --- | --- | --- | --- | --- | --- | --- | --- | --- | --- | --- | --- | --- | --- |
| COCC[n+]1c2c(n(Cc3cnccn3)c1C)C(=O)c1ccccc1C2=O + Cc1ccc(NC(=O)c2cccc(N(C)C)c2)cc1NC(=O)c1ccc(O)cc1 [ZM336372] (first compound 0.002 µM, partner dose 10 µM) | 81.8% | 63.2% | 43.5% | 30.9% | 64.7% | 94.7% | 33.9% | 29.9% | 35.6% | 110% | 47.9% | 34.9% | 88.2% | 31.7% | 18.4% | 71.3% | 49.1% | 62.8% | 88.2% | 48.9% |
| O=C(CCCCCCC(=O)Nc1ccccc1)NO [vorinostat] + COc1cc2c(Oc3ccc4[nH]c(C)cc4c3F)ncnc2cc1OCCCN1CCCC1 [cediranib] (first compound 0.4 µM, partner dose 2 µM) | 67.7% | 79.2% | 91.6% | 77% | 52.3% | 88% | 95.9% | 75.2% | 67.3% | 78.8% | 70.9% | 69.5% | 90.9% | 64.5% | 61.5% | 70.5% | 78.5% | 84.8% | 71.6% | 77.8% |
| O=C(CCCCCCC(=O)Nc1ccccc1)NO [vorinostat] + O=c1cc(-c2cccc3c2Sc2ccccc2S3)oc(N2CCOCC2)c1 [KU55933] (first compound 0.4 µM, partner dose 5 µM) | 74.9% | 85.7% | 99.3% | 81.9% | 94.7% | 80% | 83.8% | 77.8% | 71.3% | 125% | 48.3% | 71% | 114% | 71.3% | 84.1% | 83.5% | 95% | 81.5% | 81.2% | 74.4% |
| O=C(CCCCCCC(=O)Nc1ccccc1)NO [vorinostat] + O=S(=O)(c1ccccc1)N(CC(F)(F)F)c1ccc(C(O)(C(F)(F)F)C(F)(F)F)cc1 [T0901317] (first compound 0.4 µM, partner dose 7 µM) | 68.6% | 83.7% | 88.1% | 83.4% | 80.4% | 87.5% | 92.6% | 95.2% | 75.7% | 87.2% | 72.1% | 64.3% | 85.7% | 71.6% | 69.7% | 85.4% | 85.2% | 93.8% | 72.2% | 66% |
| C#Cc1cccc(Nc2ncnc3cc(OCCOC)c(OCCOC)cc23)c1 [erlotinib] + CN(C)S(=O)(=O)c1ccc2c(c1)/C(=C/c1cc3c([nH]1)CCCC3)C(=O)N2 [SU6656] (first compound 4 µM, partner dose 2 µM) | 60.9% | 60.8% | 68.1% | 50.6% | 82.6% | 75.1% | 76.4% | 62.8% | 37.5% | 63.1% | 39.2% | 90.3% | 76.9% | 65.4% | 86.1% | 50.6% | 47.3% | 59% | 47.5% | 68% |
| O=C(CCCCCCC(=O)Nc1ccccc1)NO [vorinostat] + NCC(=O)Nc1ccc(-n2nc(C(F)(F)F)cc2-c2ccc3c(ccc4ccccc43)c2)cc1 [OSU03012] (first compound 0.4 µM, partner dose 5 µM) | 49.1% | 53.7% | 81.4% | 66.5% | 65.3% | 62% | 80.7% | 66.6% | 71.1% | 86.3% | 23.4% | 24.1% | 16.1% | 42.3% | 60.9% | 47.3% | 57.6% | 75.7% | 81.5% | 37% |
| Cn1c(Nc2ccc(C(F)(F)F)cc2)nc2cc(Oc3ccnc(-c4ncc(C(F)(F)F)[nH]4)c3)ccc21 + COc1cc(Nc2ncc(F)c(Nc3ccc4c(n3)NC(=O)C(C)(C)O4)n2)cc(OC)c1OC [Tamatinib] (first compound 0.4 µM, partner dose 2 µM) | 63% | 101% | 62.3% | 81.3% | 10.3% | 85.2% | 92.4% | 68.9% | 17% | 69.3% | 73.7% | 81.1% | 100% | 52.2% | 85.1% | 58.1% | 54.4% | 58.9% | 24.5% | 61% |
| COCC[n+]1c2c(n(Cc3cnccn3)c1C)C(=O)c1ccccc1C2=O + O=C(CCCCCCC(=O)Nc1ccccc1)NO [vorinostat] (first compound 0.002 µM, partner dose 0.4 µM) | 86.6% | 64.7% | 44.5% | 34.9% | 65.7% | 109% | 29.8% | 47.8% | 78% | 86.7% | 47.3% | 37.9% | 90.7% | 53.7% | 25.2% | 80.8% | 73.2% | 54.2% | 110% | 41.1% |
| C#Cc1cccc(Nc2ncnc3cc(OCCOC)c(OCCOC)cc23)c1 [erlotinib] + NCC(=O)Nc1ccc(-n2nc(C(F)(F)F)cc2-c2ccc3c(ccc4ccccc43)c2)cc1 [OSU03012] (first compound 4 µM, partner dose 5 µM) | 58.1% | 52% | 73.6% | 65.5% | 53% | 69.5% | 67.8% | 60.2% | 58.9% | 77.5% | 25.4% | 39.1% | 60.6% | 48.6% | 85.8% | 67.4% | 65.1% | 79.1% | 39.3% | 44.6% |

— the supplement of paper PMC4604168 (melanoma cell lines)
